From PubChem BioAssay AID588342 (National Center for Advancing Translational Sciences (NCATS), 2011)
Values joined by “and” are separate entries in the source; they are usually repeats but may differ in a detail not shown here. Equal entries are not always repeated. Screen size: about 360,000 compounds; about 25,000 (6.9%) were called active. The inconclusive results got no clear call from the source; some entries with a clear call stand among them for comparison. Calls follow the shape of the dose curve; as a rule, active = well fitted inhibition curve with a large enough effect; inconclusive = small, poorly fitted or top-dose-only effect; inactive = flat fitted curve, though single readings scatter. Potencies of inconclusive entries are doubtful fits and often do not repeat.

Target: Luciferin 4-monooxygenase (Photinus pyralis) (UniProt P08659)
Test: qHTS profiling assay for firefly luciferase inhibitor/activator using purifed enzyme and Km concentrations of substrates (counterscreen for miR-21 project); also: nearly all actives have a fitted effect of over 55% in size
Details: purified FLuc, luminescence inhibition; series mostly up to 57.5 µM
Method in brief: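 Purified P. pyralis luciferase, 10 nM final, with Km-level 10 uM D-luciferin and 10 uM ATP in 50 mM Tris acetate pH 7.5, 10 mM Mg acetate, 0.01% Tween-20, 0.05% BSA; 6-point qHTS titration about 60 µM downward; luminescence read.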
Potency is read from the fitted curve at half-maximal effect; tags tell the direction and shape of the fitted curve.

UniProt P08659, sequence (P08659 whole entry, looked up): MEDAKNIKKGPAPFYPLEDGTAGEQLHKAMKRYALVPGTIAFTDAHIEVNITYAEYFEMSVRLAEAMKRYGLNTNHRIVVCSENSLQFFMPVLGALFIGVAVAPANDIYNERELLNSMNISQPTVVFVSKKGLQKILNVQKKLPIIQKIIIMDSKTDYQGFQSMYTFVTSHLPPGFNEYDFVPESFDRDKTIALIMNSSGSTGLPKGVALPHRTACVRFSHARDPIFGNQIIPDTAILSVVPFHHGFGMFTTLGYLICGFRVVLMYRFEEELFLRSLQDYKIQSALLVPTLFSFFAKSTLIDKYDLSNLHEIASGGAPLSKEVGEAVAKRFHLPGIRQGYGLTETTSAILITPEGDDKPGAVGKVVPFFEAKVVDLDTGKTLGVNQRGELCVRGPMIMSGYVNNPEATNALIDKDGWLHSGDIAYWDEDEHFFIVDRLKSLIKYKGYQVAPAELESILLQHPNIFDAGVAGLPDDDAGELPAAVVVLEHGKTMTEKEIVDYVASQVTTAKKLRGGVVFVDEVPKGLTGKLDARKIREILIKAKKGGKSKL

SMILES | Potency
CCOc1cccc(-c2cc(-c3n[nH]c(=S)n3CC)c3ccccc3n2)c1 | active: 12 µM
CCOC(=O)CNC(=O)c1ccc(C#CC2(O)CCCCC2)cc1 | inconclusive: 26.9 µM [inhibitor, partial curve, poor fit]
CCC(C)C(NC(=O)c1ccccc1NC(=O)c1ccco1)C(=O)NNC(=O)c1ccc(OC)cc1 (configuration not stated) | inactive
COc1cccc(S(=O)(=O)NCc2ccc(C(=O)Nc3cccc(Cl)c3)cc2)c1 | inactive
COc1ccccc1-c1noc(-c2ccc(NCCc3ccccc3)c([N+](=O)[O-])c2)n1 | inconclusive: 26.9 µM [inhibitor, partial curve]
c1ccc(-c2nc3ccccc3s2)nc1 | active: 2.39 µM and active: 3.79 µM
COc1cccc(CNC(=O)CSc2ncc(S(=O)(=O)c3ccc(C)c(Cl)c3)c(=O)[nH]2)c1 | inconclusive: 15.1 µM [inhibitor, partial curve]
O=C(CNC(=O)c1cccs1)OCc1ccc(Br)cc1 | inactive
CCCC(NC(=O)CCc1c(C)c2cc3c4c(oc3c(C)c2oc1=O)CCCC4)C(=O)O (configuration not stated) | inconclusive: 19 µM [inhibitor, partial curve, poor fit]
CN(C(=O)Nc1ccc(Cl)cc1)n1cnc2ccccc2c1=O | inconclusive: 37.9 µM [inhibitor, partial curve, poor fit]
CC(C)(C)C(=O)OCc1cc(=O)n2nc(C3CCCCC3)sc2n1 | inconclusive: 15.1 µM [inhibitor, partial curve]
CC(C)(C)OC(=O)NCC(=O)Oc1cc2oc(=O)cc(-c3ccccc3)c2cc1Cl | inconclusive: 26.9 µM [inhibitor, single point]
Cc1cc(F)ccc1NC(=O)CCc1c(C)nn(-c2ccc(N3CCCCC3)nn2)c1C | inconclusive: 16.9 µM [inhibitor, partial curve]
CC1(C)OC(=O)C(=CNc2ccccc2)C(=O)O1 | inconclusive: 26.9 µM [inhibitor, partial curve, poor fit]
Cc1ccsc1/C=C(\CC(=O)O)c1nc2ccccc2o1 | inconclusive: 37.9 µM [inhibitor, single point]
CCc1ncc(/C=C2\C(=O)Nc3ccccc32)[nH]1 | active: 13.5 µM
COc1ccccc1C1CCN(c2ccc([N+](=O)[O-])cn2)CC1 | inconclusive: 19 µM [inhibitor, partial curve]
CC(C)S(=O)(=O)c1csc(NC(=O)Nc2cccc([N+](=O)[O-])c2)c1Cl | inconclusive: 37.9 µM [inhibitor, single point]
CCOc1ccc(CCNc2ncnc3onc(-c4ccc(F)cc4)c23)cc1OCC | inactive
COc1ccccc1C(=O)CC(=O)c1ccccc1 | active: 13.5 µM
CC(C)CCOc1ccc(C(=O)NCCC(=O)N2CCOCC2)cc1 | inconclusive: 23.9 µM [inhibitor, partial curve, poor fit]
CCC(=O)c1cn(CC(=O)Nc2ccc(C)cc2)c2ccccc12 | inactive
CC(=O)N1CC[n+]2c(-c3ccc(Cl)cc3)csc21 | inconclusive: 37.9 µM [inhibitor, partial curve, poor fit]
O=C(NCCCn1ccnc1)c1ccc(-c2ccccc2)cc1 | inconclusive: 19 µM [inhibitor, single point]

SMILES | Potency
O=C(NCc1ccco1)c1ccc2c(=O)n(CC3CCCO3)c(=S)[nH]c2c1 (configuration not stated) | inactive
O=C(CN1CCOCC1)N/N=C/c1ccc(-c2cccc(Cl)c2Cl)o1 | inconclusive: 37.9 µM [inhibitor, single point]
CC1CCN(Cc2nnc(-c3cccc(Br)c3)o2)CC1 | inconclusive: 30.1 µM [inhibitor, partial curve, poor fit]
OCc1cnc(SCc2cccc(F)c2)n1Cc1ccc(F)cc1 | inactive
C/C(=N\N1C(=O)c2ccccc2C1=O)c1cccc([N+](=O)[O-])c1 | active: 16.9 µM
CCCc1nnc(SCC(=O)N2CCOCC2)n1Cc1ccco1 | inactive
O=C(Nc1ccc(-c2cn3c(n2)SCC3)cc1)c1ccc2ccccc2n1 | active: 19 µM
O=C(N/N=C/c1cnc(N2CCCCC2)s1)c1ccc(Cl)cc1 | inconclusive: 26.9 µM [inhibitor, single point]
C/C(CC1CC(COCC(C)C)OC1=O)=N\Nc1nc(-c2ccccc2)cs1 (configuration not stated) | inconclusive: 37.9 µM [inhibitor, partial curve, poor fit]
O=c1cc(-c2ccccc2)n2c(SCc3ccc([N+](=O)[O-])cc3)nnc2[nH]1 | inconclusive: 4.26 µM [inhibitor, full curve]
COc1ccccc1NC(=O)CSc1nnnn1C1CCCCC1 | inconclusive: 37.9 µM [inhibitor, partial curve, poor fit]
CCOC(=O)C1CCCN(C(=O)c2cccc(S(=O)(=O)N(Cc3ccccc3)c3ccccc3OC)c2)C1 (configuration not stated) | inactive
CCCOc1ccc(-c2nnc(N)s2)cc1 | active: 7.57 µM
Cc1ccc(N/C=C(/C#N)c2ccsc2)cc1C | active: 2.39 µM
Cc1c(C(=O)O)sc2nc(/C=C/c3cccc(F)c3)[nH]c(=O)c12 | inconclusive: 21.3 µM [inhibitor, partial curve]
C/C(=N/NC(=O)c1ccc(Cn2cccn2)o1)c1cccc(NC(=O)c2ccncc2)c1 | inconclusive: 37.9 µM [inhibitor, partial curve, poor fit]
COc1ccc(OCC(=O)Sc2ccc(C)cc2)cc1 | inconclusive: 37.9 µM [inhibitor, single point]
CCC(C(=O)Nc1cc(C(=O)Nc2cc(C)ccn2)ccc1Cl)c1ccccc1 (configuration not stated) | inconclusive: 23.9 µM [inhibitor, single point]
COc1ccc(-c2nc(CCNC(=O)c3cccs3)cs2)cc1OC | inconclusive: 30.1 µM [inhibitor, partial curve, poor fit]
O=C(Cc1sc(Nc2ccccc2)nc1-c1ccccc1)NCc1ccccn1 | active: 19 µM
O=C1C=C(c2ccccc2)OC(=O)C1C(=O)c1ccccc1 (configuration not stated) | active: 16.9 µM and active: 23.9 µM
Cc1ccc(NC(=O)CN(C)C(=O)COc2ncnc3ccc(Br)cc23)cc1 | inactive
O=C(c1cc(S(=O)(=O)N2CCOCC2)ccc1F)N(Cc1nnc(-c2ccccc2Cl)o1)C1CC1 | inactive
C#CCNc1ccc(C(=O)OCC)cc1 | inconclusive: 21.3 µM [inhibitor, single point]

SMILES | Potency
CCOc1ccc2c(c1)c1nc3ccccc3nc1n2C | inconclusive: 6.01 µM [inhibitor, full curve]
Cc1sc(NC(=O)c2c(F)cccc2F)nc1-c1ccccc1 | inconclusive: 26.9 µM [inhibitor, partial curve, poor fit]
COc1ccc(C(=O)Nc2cccc(C(C)=O)c2)cc1OC | inconclusive: 26.9 µM [inhibitor, partial curve]
O=c1cnnc(Nc2cccc(C(F)(F)F)c2)[nH]1 | inconclusive: 37.9 µM [inhibitor, partial curve, poor fit]
CC(=O)c1sc(NC(=O)c2cccc(N3C(=O)CCC3=O)c2)nc1-c1ccccc1 | inconclusive: 3.79 µM [inhibitor, partial curve, poor fit]
COc1ccc2nc(NC(=O)CSc3nc4ccccc4o3)sc2c1 | inconclusive: 21.3 µM [inhibitor, partial curve, poor fit]
Cc1cc(C(=O)N/N=C/c2ccccn2)n[nH]1 | inconclusive: 30.1 µM [inhibitor, single point]
CC(=O)Nc1ccc(C2CC(c3ccc(Cl)cc3)=NN2c2ccccc2)cc1 (configuration not stated) | active: 16.9 µM
Cn1nnc2c(N3CCCCC3)ncnc21 | inactive
COc1ccc(C(=O)Nc2ccccc2C(=O)Nc2cccc(C)n2)cc1 | active: 5.36 µM
O=C(Nc1nnc(-c2cc(Cl)ccc2Cl)o1)c1ccco1 | active: 6.01 µM
CCOc1ccc(-c2csc(N)c2C(=O)OC)cc1 | inconclusive: 26.9 µM [inhibitor, partial curve, poor fit]
Clc1ccc(CNc2nc3ccccc3c3nc(-c4cccnc4)nn23)cc1 | inactive
O=S(=O)(Nc1cccc(-c2ccc(N3CCCCCC3)nn2)c1)c1ccccc1Cl | active: 8.49 µM
Cc1ccc(NCc2cccn2-c2nnc(N3CCC(C(=O)NCCc4ccccc4)CC3)s2)cc1 | inactive
Cc1ccc(C(=O)NCC(=O)OCCCOC(=O)CNC(=O)c2ccc(C)cc2)cc1 | inconclusive: 16.9 µM [inhibitor, partial curve]
CCc1ccccc1NC(=O)c1cccc(Oc2ccc([N+](=O)[O-])cc2Cl)c1 | inactive
Cc1ccc(-n2c(C)cc(C(=O)CSc3nnc4ccccn34)c2C)cc1 | active: 2.13 µM
CCOc1ccc(NC(=O)Nc2cc(C(C)C)c(O)cc2C)cc1 | inactive
CCN(CC)S(=O)(=O)c1ccc(N2CCOCC2)c(NC(=O)COc2ccccc2C)c1 | inactive
COc1ccc(-c2nnc(NC(=O)C(C)C)s2)c(OC)c1 | inconclusive: 2.39 µM [inhibitor, full curve]
O=C(Nc1nnc(SCc2c(Cl)cccc2Cl)s1)c1cccc([N+](=O)[O-])c1 | inconclusive: 37.9 µM [inhibitor, single point]
Cc1cccc(C(=O)Nc2ccc(C(=O)N/N=C/c3ccc(C)o3)cc2)c1 | inconclusive: 37.9 µM [inhibitor, partial curve, poor fit]
Cc1cc(C)c2oc(-c3cccc(NC(=O)c4cc5ccccc5o4)c3)nc2c1 | inconclusive: 2.69 µM [inhibitor, full curve]
